Data published in patent publication US4710578A, “Isothiuronium salts” (Peremartoni Vegyipari Vallalat, priority 1984, dated 1987).

Test system: Lewis long tumor
Conditions: 5 mg/kg

N-Aminoiminomethyl-S-(1-Chloro-2-Hydroxy-Propyl)-Isothiuronium Bromide [Example 14]
Decrease of number of lung metastasis: 50%
